Assay results from PMC8242001.
No constants are given. Whether binding was seen depends on the method and setting. In cells and extracts the contact can be indirect. Some binding calls cover weakened binding; strength is not graded here. Sequences can lack the tags named with a protein.

Tests used:
[1] = molecular target: T1, Caf20-FLAG (wild type CAF20, C-terminally tagged with two copies of the Flag epitope) (S. cerevisiae) (UniProt P12962); assay: cross-linking; whole cell extracts from Caf20-FLAG cells treated with BMH, MBS or DSS (0.5, 1 or 2 mM); SDS-PAGE and western blots with Flag, eIF4G and eIF4E antibodies
T1 sequence: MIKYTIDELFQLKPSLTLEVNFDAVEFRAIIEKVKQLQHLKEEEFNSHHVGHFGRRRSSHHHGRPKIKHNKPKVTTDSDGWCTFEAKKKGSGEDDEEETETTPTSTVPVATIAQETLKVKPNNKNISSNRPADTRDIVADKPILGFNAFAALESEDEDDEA

[2] = molecular target: T1, Caf20-FLAG (wild type CAF20, C-terminally tagged with two copies of the Flag epitope) (S. cerevisiae); assay: co-IP; as the low-salt Flag IP, but with high salt buffer (1 M KCl); Caf20-FLAG held on anti-Flag M2 magnetic beads from yeast total cell extract; eluted with 3X Flag peptide; western blot for native eIF4E
[3] = molecular target: T2, Caf20^m2-FLAG (Y4A, L9A) (S. cerevisiae) (UniProt P12962); assay: as above
T2 sequence: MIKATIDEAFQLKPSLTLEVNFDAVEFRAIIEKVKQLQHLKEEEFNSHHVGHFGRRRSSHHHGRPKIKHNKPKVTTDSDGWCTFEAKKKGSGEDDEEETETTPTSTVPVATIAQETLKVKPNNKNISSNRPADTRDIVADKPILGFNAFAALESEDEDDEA

[4] = molecular target: T3, Caf20^∆A-FLAG (S. cerevisiae) (UniProt P12962); assay: as above
T3 sequence: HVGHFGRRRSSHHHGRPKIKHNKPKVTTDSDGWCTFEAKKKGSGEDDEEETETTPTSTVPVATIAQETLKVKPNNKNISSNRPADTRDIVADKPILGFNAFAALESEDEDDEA

[5] = molecular target: T1, Caf20-FLAG (wild type CAF20, C-terminally tagged with two copies of the Flag epitope) (S. cerevisiae); assay: co-IP; Caf20-FLAG held on anti-Flag M2 magnetic beads from yeast total cell extract; IP lysis buffer 30 mM HEPES-KOH pH 7.5, 10% glycerol, 1 mM TCEP with 100 mM KCl (low salt); 1-2 h at 4 °C; eluted with 3X Flag peptide; western blot for native eIF4E
[6] = molecular target: T2, Caf20^m2-FLAG (Y4A, L9A) (S. cerevisiae); assay: as above
[7] = molecular target: T3, Caf20^∆A-FLAG (S. cerevisiae); assay: as above
[8] = molecular target: T1, Caf20-FLAG (wild type CAF20, C-terminally tagged with two copies of the Flag epitope) (S. cerevisiae); assay: co-IP; Caf20-FLAG plasmids expressed in a strain whose endogenous CAF20 is tagged with 9xMyc; αFlag IP, pellets probed for Caf20-myc
[9] = molecular target: T1, Caf20-FLAG (wild type CAF20, C-terminally tagged with two copies of the Flag epitope) (S. cerevisiae); assay: cross-linking; MBS on cell extracts from untagged, Flag-, Myc- and TAP-tagged Caf20 strains; shift of the major cross-linked bands compared between the tags

B1: eIF4E (native, yeast) (protein, UniProt P07260 1-213)
chain: MSVEEVSKKFEENVSVDDTTATPKTVLSDSAHFDVKHPLNTKWTLWYTKPAVDKSESWSDLLRPVTSFQTVEEFWAIIQNIPEPHELPLKSDYHVFRNDVRPEWEDEANAKGGKWSFQLRGKGADIDELWLRTLLAVIGETIDEDDSQINGVVLSIRKGGNKFALWTKSEDKEPLLRIGGKFKQVLKLTDDGHLEFFPHSSANGRHPQPSITL
binding [1]: binds | binding [2]: binds | binding [3]: no binding | binding [4]: no binding | binding [5]: binds | binding [6]: no binding | binding [7]: no binding

B2: Caf20-FLAG (wild type CAF20, C-terminally tagged with two copies of the Flag epitope) (protein, UniProt P12962 1-161)
chain: MIKYTIDELFQLKPSLTLEVNFDAVEFRAIIEKVKQLQHLKEEEFNSHHVGHFGRRRSSHHHGRPKIKHNKPKVTTDSDGWCTFEAKKKGSGEDDEEETETTPTSTVPVATIAQETLKVKPNNKNISSNRPADTRDIVADKPILGFNAFAALESEDEDDEA
binding [8]: no binding | binding [9]: no binding
